Among the data in the RNAGym collection of RNA variant scans (doi:10.7554/elife.90254) are self-cleavage values, retold here.

The chains are these.
B1: LINE1-mini (parent)
chain: GGCAGAGCUCAACACAGCGUGGCAAAGUGGCUGUGGCUAGACUGCC

Read counts are not given, so values of variants with three or more changes are uncertain.

The variants in the data set derive from B1. Briefly: self-cleavage, relative activity (ratio to wild type); higher = more cleavage; in vitro, sequencing; the parent is a self-cleaving ribozyme.
Take GGCAGAGCUCAAAAAGGCGUGGCAAGCUGGCUGUGGCUAGACUGCC [C13A C15A A16G A26G G27C]: the self-cleavage was determined as 0.1.

Consider GGAAGAGCUCAACACAGCGUGGCAAAGUGGCUGUGGCUAGCCGGCC [C3A A41C U43G], for which the self-cleavage worked out at 0.18. As for GGCGGAGCUCAACACAGCAUGGCAAAGUGGCUGUGUCUAGACUGCC [A4G G19A G36U], the figure is 0.04.

For the variant GGCUGAGAUCAACACUGCGUGGCAAAGUGGCUGUGGCUAGACUGCC [A4U C8A A16U], the self-cleavage came to 0.12. With GUCAGUGCUCACCACAGCGUGGUAAAGUGGCGGUAGCUGGACUGGC [G2U A6U A12C C23U U32G G35A A39G C45G] the figure was 0.01; with AGCAGAGCUCACCACAGCGUGGCAAAGUGCCUGAGGCUAGACUGCC [G1A A12C G30C U34A], 0.06.

Turning to GGCAGCGGUUAACACAGCGUAGUAAAGUGGCUGUGGCUAUAUUGCC [A6C C8G C10U G21A C23U G40U C42U], the self-cleavage stood at 0.

For GGCAGGGCCCAACAUAGCGCGGCAUAGUGGCUGUGGCUAGUCUGAC [A6G U9C C15U U20C A25U A41U C45A], the self-cleavage was determined as 0.04. For the variant GGCAGCGCUCAACACAGCGUGGCAAAGUGGCUGUUGCUAGACUGUC [A6C G35U C45U], the self-cleavage stood at 0.03.

For the variant GGCAGAGCUUAAGACAGCGUGGCAAUGUGGCUGUGGGUAGACUGCG [C10U C13G A26U C37G C46G], the self-cleavage was found to be 0.02.

Consider GGCAGAGCUCAACACGGCGUGGCAAAGUGCUUGUGGCUAGACUGCC [A16G G30C C31U], for which the self-cleavage is 1.11. With GGCAGAGAUCUACUCAGCGUGGCAAAGUGGCUGUGGCUAGACUGCC [C8A A11U A14U] the figure was 0.04; with UGCAGAGCUCAACACAGCAUGGCAAAGCGGCUGUGGCUAGACUGCC [G1U G19A U28C], 0.29.

GACAGAGCUCAACACAGCGUGGCAAAGUGGCUGUAGUUACACUGCC [G2A G35A C37U G40C]: the self-cleavage was determined as 0.01. As for GCCAGAGCUCAACACAGCCUUGCACAUUGGCUGUGGCUAGACUGCC [G2C G19C G21U A25C G27U], the figure is 0.36; as for GGCAGAGCCCAACACGGCGUGGCAAACUGGCUUUGGCUAGUCUGCC [U9C A16G G27C G33U A41U], 0.01. For GGCAGAGCUCAACACCUAGUGGCAAAGUGGGUGUGGCUAGACUGCC [A16C G17U C18A C31G], the self-cleavage worked out at 0.01.

In the case of CGCAGAGCUCAACGCAGCGUGGCAACGUGGCUGUGGCUAGACUGCC [G1C A14G A26C], the self-cleavage is 0.01. As for GGCAGAGCUCACCACAGCGGGGCAAAGUGGAUGUGGCUAGACUGCC [A12C U20G C31A], the figure is 0.06. With GGCAGAGCUCACCACUUCGUGGCAAAGUGGAUGUGCCUAGACUGCC [A12C A16U G17U C31A G36C] the figure was 0.01. As for GGCACAGCUCAACACAAAGUGGCAAAGUGGCUGUGGCUAGACUGCC [G5C G17A C18A], the figure is 0.01; as for GGCAGAGCCCAACACUGCGUGGGAAAGUGGCUGUGGCUAGACUUCU [U9C A16U C23G G44U C46U], 0.02; as for GGCAUAGCUCAACACAGCGUGGCAAAGUGGCUGUAGCUAGACUUCC [G5U G35A G44U], 0.05. For GCCCGAGCUCAACACUGCGUGGCAAAGUGGCUGUGGCUAGACUGCC [G2C A4C A16U], the self-cleavage amounted to 0.04. In the case of GGCAGAGCUCAACACAGCGUGGCAAAGUGGCGGUCGCUAGACUUCG [U32G G35C G44U C46G], the self-cleavage worked out at 0.05. For the variant GGCAGAGCUCAACACAGCGUGGCAAGGUGCCUGUGGACAGACUGCC [A26G G30C C37A U38C], the self-cleavage amounted to 0.05.

Consider GGCAGAGCUCAUCACAGCGUGGCACAGUAGCUGUGGCUAGACCUCC [A12U A25C G29A U43C G44U], for which the self-cleavage came out at 0.06. GGCAGAGCUCAACACAGCGUCGCACAGGGGCUGUGGCUAGACUGCC [G21C A25C U28G]: the self-cleavage is 0.37. As for GGCAGAGCUCAACACAGGGUGGCAAGUUGGCCGUGGCUAGACUGCC [C18G A26G G27U U32C], the figure is 0.02; as for GGCAGAGCUCAACACAGUGUGGAAAAGUGGCUGUGGCUAGACUCCC [C18U C23A G44C], 0.47. With GGUAGAGCUCAACACAUCAUGGCAAAGUGGCUGUGGCUAGACUGCC [C3U G17U G19A] the figure was 0.57; with GGCAGAGCUGAACACAGCGUGGCAAAGUGGUUGGGGCUACACUGCC [C10G C31U U34G G40C], 0.03.

Take GACAGGGCUCAACACAACGUGGCAAAGUGGCUGCGGCUAGACUGCC [G2A A6G G17A U34C]: the self-cleavage stood at 0.03. With GGCAGAGCUCAACACUGCGUGGCAAAGUUGUUGUGGCUAGACUGCC [A16U G29U C31U] the figure was 0.02; with GGCAGAGCUCAACACAGCGUGGCAGAGUGGCUGUGGCUCGACUGGC [A25G A39C C45G], 0.03; with GGCAGAGCUUAAGACAGCGUGGCAAAGGGCCUGUGGCUAGACUGCC [C10U C13G U28G G30C], 0.03. Turning to GGCAGAGCUCGACACAGCGUGGCAGAGUGGCUGUGGCAAGACUGCU [A11G A25G U38A C46U], the self-cleavage worked out at 0.01. As for GGCACAGCUCAACACAUCGUGGCAAAGUGGCAGUGGCUAGACUGCC [G5C G17U U32A], the figure is 0.05; as for GACAGAGCUCAACACAGCGUCUCAAACUGGCUGUGGCUAAACUGCC [G2A G21C G22U G27C G40A], 0.15; as for GGCAGAGCUCCACACAGCGUGGCAAGGUGGCUGUAGCUAGACUGCC [A11C A26G G35A], 0.01.

Take GGCAGGGCUCAACACAGCGUGGCAAAGUUGCUGUGGCUAGUCUGCC [A6G G29U A41U]: the self-cleavage stood at 0.11. In the case of GGCAGAGAUCAACACAACGUGGCCAAGUGGCUGUGGCUAGACUGGC [C8A G17A A24C C45G], the self-cleavage turned out to be 0.22.

Turning to GGCAGAGCUCAACUCAGCGUGGCAAAGUGGUUGUGGCUUGACUGCC [A14U C31U A39U], the self-cleavage was 0.03. With GGUAGAGCUCAACACAGCGUGGCAAAGUUGCUGUGGCUAGACUGCG [C3U G29U C46G] the figure was 0.26; with GGCAGAGCUCAACACAGCGUAACAAAGUGGCUGGGGCUAGAAUCCC [G21A G22A U34G C42A G44C], 0.1. As for GGCAGAGCUUAACAUAACGUGGCAAAGUGGAUGUUGCUAGACUGCC [C10U C15U G17A C31A G35U], the figure is 0.02; as for GGCAGAGCUCAACACAGCAUGGCGAAGUGGCUGUGGAUAGACUGGC [G19A A24G C37A C45G], 0.05; as for GGCAAAUCUCAACACAGCGUGGCAAAGUCGCUGUGGCUUGACUGCC [G5A G7U G29C A39U], 0.07. On to GGCAGAGCUCAACACCGCGUGGCAAAGUGGCUGUAGCUAGAUUGCC [A16C G35A C42U], for which the self-cleavage was determined as 0.08. For GGCAGUGCUCAACACAGCGUGGCAAUAUGGCUGUGGCUAUACUGCC [A6U A26U G27A G40U], the self-cleavage was 0.04. As to AGCAGAGCUCAACACUGCGUGGUAGAGUUGCUGUGGCUAGACUGCC [G1A A16U C23U A25G G29U], the self-cleavage came to 0.02. With GGCAGAGCUCAACACUGCGUGGCAAAGGGGCUGUGGCUAGACUGCA [A16U U28G C46A] the figure was 0.12; with GGCAGAUUUCAACUCAGCGUGGCAAAGUGGCUGUGGAUAGACUGCC [G7U C8U A14U C37A], 0.1.

As for GGCAUAGCUCAACACAACGUGGCAAAGUGUCUGUGGCUAGAAUGCC [G5U G17A G30U C42A], the self-cleavage was 0.06. With GGCAGAGCCCAACACAGCGUGGCAAAGUGGCUGUUGCUAGCCCGCC [U9C G35U A41C U43C] the figure was 0.02; with GGCAGAGCUCAACACAGAGGGGCAUAGUGGCUGUGGCUAGACUGCC [C18A U20G A25U], 0.28.
